# Experimental data taken from PubChem BioAssay (NCATS).
# “And” between values parts separate entries of the source, which are not always exact repeats. Equal entries are not always repeated. This is one part of the list. Shown are side measurements of this screen, not its main read-out; they come without a call. Most of these compounds were active or inconclusive in the main read-out, so they are no random draw. For some assays here: The note in brackets gives the kind of curve behind each potency; many fits are weak.
# How the values were obtained:
# [1] = qHTS Assay for Lipid Storage Modulators (AID 1519); details: Drosophila S3 cells, BODIPY lipid droplet/cell ratio, laser cytometry, cells loaded with oleic acid
# Summary of the method: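 Cells seeded at 5,000 per well were treated with compounds over a concentration series and loaded with oleic acid (400 uM, as added). Lipid droplet fluorescence (488 nm excitation, 500-530 nm channel) was read by laser-scanning cytometry and normalized to 20 uM Triacsin C.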
# [2] = qHTS Assay for Modulators of Human Peripheral Myelin Protein 22 (PMP22) Expression/Activity (AID 1967); details: Cell-based PMP22 reporter, dual-color luciferase ratio; measured here: red reporter channel AC50; EF-alpha promoter control reporter in MSC80 mouse Schwann cells
# Summary of the method: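 MSC80 mouse Schwann cells stably carrying Pmp22 promoter–green click beetle luciferase plus EF-alpha–red luciferase control were dosed for 24h at 37 °C. Dual-colour luminescence was filter-overlap corrected; %Activity came from green/red ratio versus untreated cells.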
# [3] = Nrf2 qHTS screen for inhibitors: Validation (AID 493153); details: A549 ARE-Fluc reporter, 18-24 h; AC50: CellTiter-Fluor fluorescence read, measured here: cytotoxicity CellTiter-Fluor AC50; viability change: measured here: cytotoxicity max response
# Summary of the method: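 A549 cells carrying ARE-firefly luciferase reporter, 5000 cells/well in 5% FBS OPTI-MEM, treated with compound over a concentration series for 18-24 h at 37 C. Luciferase luminescence gave Nrf2 activity; CellTiter-Fluor fluorescence gave viability.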
# [4] = qHTS assay for small molecule antagonists of androgen receptor signaling (AID 588516); details: AR-UAS-bla HEK293, beta-lactamase ratio, antagonist mode, 16 h
# Summary of the method: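 Antagonist-mode qHTS: inhibition of R1881 (10 nM)-driven beta-lactamase expression in GripTite HEK 293 cells is measured after 16 h; values are Hill-derived IC50s normalized between R1881 and DMSO wells.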
# [5] = qHTS assay for small molecule antagonists of glucocorticoid receptor signaling (AID 588533); details: HeLa MMTV-bla, GRE beta-lactamase ratio, antagonist mode, 18 h; measured here: W530 channel AC50;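 also: cells stimulated with 2 nM dexamethasone as agonist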
# [6] = qHTS assay for small molecule antagonists of peroxisome proliferator-activated receptor gamma signaling (AID 588537); details: HEK293 PPARg-UAS-bla, beta-lactamase ratio, antagonist mode; measured here: W460 blue channel
# Summary of the method: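 We seeded GeneBLAzer HEK293 reporter cells at 3000 per well, allowed 6-6.5 h attachment at 37 C, then co-treated with test compound titrations and 50 nM rosiglitazone overnight (16 h). Inhibition was quantified from 460/530 nm emission ratios.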
# [7] = qHTS assay for small molecule antagonists of retinoid X receptor alpha signaling (AID 588546); details: HEK293T RXRa-UAS-bla, beta-lactamase ratio, antagonist mode; measured here: W530 green channel, cytotoxicity proxy;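 also: cells stimulated with 9-cis-retinoic acid as agonist; % is scaled to controls: 0 for no effect and ±100 for the full control effect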
# Summary of the method: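 Beta-lactamase reporter inhibition, read as CCF4 fluorescence ratio (ex 405, em 460/530 nm) after 2 h at RT. HEK293T UAS-bla cells, 2500/well, were stimulated with 9-cis-RA at 500 or 100 nM final alongside test compound for 18 h at 37 C.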
# [8] = qHTS Assay for Inhibitors of PDE-IV (AID 607); details: HEK293 ACTOne CNG channel cells, membrane potential fluorescence; measured here: parental cell counter-screen;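 also: parental cells stimulated with forskolin 10 µM plus RO 20-1724 100 µM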
# Summary of the method: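 Live HEK293 cells with a modified cyclic nucleotide-gated (CNG) channel report intracellular cAMP via membrane-potential dye fluorescence (ex 535/em 590 nm). Endogenous PDE-IV was targeted. Compounds were tested at up to 22.9 uM final; RO 20-1724 100 uM served as control.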
# [9] = qHTS assay for small molecule antagonists of peroxisome proliferator-activated receptor delta signaling (AID 588535); details: HEK293T PPARd-UAS-bla, beta-lactamase FRET ratio, 18 h; 460 nm channel;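 also: cells co-treated with a PPAR-delta agonist as stimulator during compound exposure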
# Summary of the method: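 Reporter: UAS-bla under PPAR-delta response element, HEK293T host. Medium: 2% charcoal/dextran FBS. Dosing: titration, 18 hrs, 37 C. Detection: CCF4, 2 hrs RT, 405 ex/460 and 530 em.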
# [10] = qHTS assay for small molecule agonists of retinoid X receptor alpha signaling (AID 588544); details: HEK293T RXRa-UAS-bla, beta-lactamase reporter, 18 h; 530 nm emission
# [11] = qHTS assay for small molecule antagonists of vitamin D receptor signaling (AID 588541); details: HEK293T VDR-UAS-bla, beta-lactamase ratio, antagonist mode; measured here: W460 blue channel (cell viability)
# [12] = qHTS Validation Assay to Find Inhibitors of Chronic Active B-Cell Receptor Signaling (AID 485345); details: ABC-DLBCL cells, chronic BCR signaling reporter; measured here: CBR control luciferase (viability counter)
# Summary of the method: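 TMD8 ABC-DLBCL cells with dox-inducible green luciferase–IκBα fusion and red native luciferase; compounds 46 uM–3 nM, 4 h at 37C with doxycycline in 0.5% FBS IMDM. Green/red ratio normalized to basal and 10 uM MG-132.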
# [13] = measured here: cell count channel max response
# [14] = measured here: cell number channel AC50
# [15] = measured here: lipid (BODIPY) channel AC50
# [16] = measured here: lipid channel max response
# [17] = measured here: W460 blue channel fit
# Tags tell the direction and shape of the fitted curve.
compound,measurement,setting,value
O=C1CC2(CCCC2)CC(=O)N1CCCCN1CCN(c2ncccn2)CC1,max response,[1]; [13],57.8%
same,AC50,[1]; [14],"15.8 µM [rising, partial curve, poor fit]"
same,AC50,[1]; [15],"15.8 µM [rising, partial curve, poor fit]"
same,max response,[1]; [16],67.5%
same,AC50,[2],"84.9 µM [falling, single point]"
same,viability change,[3],0.854%
Oc1ccc(Cl)cc1Cc1cc(Cl)ccc1O,max response,[1]; [13],-30.9%
same,AC50,[1]; [14],"39.8 µM [falling, single point]"
same,AC50,[1]; [15],"35.5 µM [falling, single point]"
same,max response,[1]; [16],-45.5%
same,AC50,[4]; [17],"50.1 µM [falling, partial curve, poor fit]"
same,AC50,"[4]; measured here: W530 green channel, cytotoxicity/artifact","35.5 µM [rising, partial curve, poor fit]"
same,AC50,[5],"44.7 µM [falling, partial curve, poor fit]"
same,AC50,[6],"17.8 µM [falling, full curve] and 31.6 µM [falling, partial curve]"
same,max response,[7],-13%
CCn1cc(C(=O)O)c(=O)c2ccc(C)nc21,AC50,[8],"10 µM [rising, single point]"
same,max response,[1]; [13],42.8% and 47.2%
same,AC50,[1]; [14],"31.6 µM [rising, single point]"
same,AC50,[1]; [15],"31.6 µM [rising, single point]"
same,max response,[1]; [16],55.9% and 46%
same,max response,[9],95.3%
same,max response,[10],21.8%
Cc1cc2c(C(C)C)c(O)c(O)c(C=O)c2c(O)c1-c1c(C)cc2c(C(C)C)c(O)c(O)c(C=O)c2c1O,max response,[1]; [13],-31.3% and -4.08% and -35.7%
same,AC50,[1]; [14],"5.01 µM [falling, partial curve, poor fit] and 7.94 µM [rising, full curve, poor fit] and 39.8 µM [falling, single point]"
same,AC50,[1]; [15],"7.08 µM [rising, full curve, poor fit]"
same,max response,[1]; [16],-41.5% and -17.3% and -60.2%
same,AC50,[5],"44.7 µM [falling, single point]"
same,AC50,[11],"44.7 µM [falling, partial curve]"
same,max response,[7],-51.3%
CCOP(=S)(OCC)Oc1nc(Cl)c(Cl)cc1Cl,max response,[1]; [13],46.8%
same,AC50,[1]; [14],"2.82 µM [rising, full curve]"
same,AC50,[1]; [15],"2.82 µM [rising, full curve]"
same,max response,[1]; [16],61.3%
same,max response,[9],81.8% and 111% and 64.5%
same,AC50,[6],"398 nM [falling, full curve, poor fit]"
same,max response,[10],30.3% and 29.2% and 25.8%
O=c1[nH]oc2c1CCNC2,AC50,[8],"0.000631 µM [rising, full curve, poor fit]"
same,max response,[1]; [13],38%
same,AC50,[1]; [14],"35.5 µM [rising, single point]"
same,AC50,[1]; [15],"6.31 µM [rising, single point]"
same,max response,[1]; [16],34.4%
COc1ccc(CNC(=O)/C=C\c2ccc3[nH]cc(CCN(C)C)c3c2)cc1,AC50,[8],"10 µM [rising, full curve, poor fit]"
same,max response,[1]; [13],59.9%
same,AC50,[1]; [14],"31.6 µM [rising, partial curve, poor fit]"
same,AC50,[1]; [15],"35.5 µM [rising, partial curve, poor fit]"
same,max response,[1]; [16],82%
CN1[C@@H]2CC[C@H]1CC(O[C@@H](c1ccccc1)c1ccc(Cl)cc1)C2 (some centres not stated),AC50,[8],"10 µM [rising, partial curve]"
same,max response,[1]; [13],49.6%
same,AC50,[1]; [14],"35.5 µM [rising, single point]"
same,AC50,[1]; [15],"35.5 µM [rising, single point]"
same,max response,[1]; [16],60.7%
CCCN1CCO[C@@H]2c3cc(O)ccc3OC[C@H]21,max response,[1]; [13],-9.03% and 7.52%
same,AC50,[1]; [14],"22.4 µM [falling, single point]"
same,AC50,[1]; [15],"22.4 µM [falling, single point]"
same,max response,[1]; [16],-6.32% and 9.32%
same,AC50,[12],"6.51 µM [rising, single point]"
C/C=C/c1ccc2c(c1)OCO2,max response,[1]; [13],34%
same,AC50,[1]; [14],"7.94 µM [rising, partial curve]"
same,AC50,[1]; [15],"8.91 µM [rising, partial curve]"
same,max response,[1]; [16],41.5%
same,AC50,[6],"50.1 nM [falling, full curve, poor fit]"
O=C1C=C2C(=CCOC2O)O1 (configuration not stated),max response,[1]; [13],-68.5%
same,AC50,[1]; [14],"22.4 µM [falling, partial curve]"
same,AC50,[1]; [15],"3.98 µM [falling, full curve]"
same,max response,[1]; [16],-94.9%
same,AC50,[4]; [17],"14.1 µM [falling, full curve, poor fit]"
same,AC50,[5],"31.6 µM [falling, partial curve, poor fit]"
same,max response,[9],-105%
same,AC50,[6],"31600 nM [falling, partial curve, poor fit]"
same,max response,[10],-33.7%
same,max response,[7],-30.2%
Cc1nccc2c1[nH]c1ccccc12,AC50,[8],"15.8 µM [rising, single point]"
same,max response,[1]; [13],109% and 26.7% and 119%
same,AC50,[1]; [14],"1 µM [rising, full curve] and 3.16 µM [rising, full curve, poor fit]"
same,AC50,[1]; [15],"1 µM [rising, full curve] and 70.8 nM [rising, full curve, poor fit] and 3.55 µM [rising, partial curve]"
same,max response,[1]; [16],147% and 32.4% and 154%
same,AC50,[12],"16.4 µM [falling, single point]"
